These results are taken from paper PMC10668032.

This is one part of the list. At the low end of the ranking the order means little.

The target of the test is SIX1-Q177R homeodomain (UniProt Q15475). As to the kind of experiment: universal protein binding microarray. The following applies: Universal all-10-mer PBM (8x60K, AMADID 030236), 300 nM GST-tagged protein, Alexa Fluor 488 anti-GST; buffer, salt, pH and temperature not stated; high values mean tight binding; most listed sequences are background and not binding sites; double strand, one strand shown.
Turning to CGTACCAC, the binding signal is -0.192 E-score.

With CGCCCCCG, the binding signal amounted to 0.13 E-score.

AGTAGCAC: the binding signal came out at 0.105 E-score.

Take AATGGGAA: the binding signal was -0.234 E-score.

Turning to GACTCGCA, the binding signal was -0.0592 E-score.

With AGCGCCGC, the binding signal was 0.0139 E-score.

As for CTACTATA, the binding signal was -0.164 E-score.

As to AGGCTGGA, the binding signal was -0.193 E-score.

In the case of ATAGCCTA, the binding signal was -0.0733 E-score.

On to GAATCCTA, for which the binding signal was -0.216 E-score.

Consider AACGTGCT, for which the binding signal is -0.0849 E-score.

In the case of CATAACAG, the binding signal was -0.208 E-score.

For CTCCGTCC, the binding signal was -0.11 E-score.

For the sequence AATCATGA, the binding signal is -0.196 E-score.

For ATGCGTTA, the binding signal came to 0.0192 E-score.

Take GGGCAGTA: the binding signal was -0.0958 E-score.

Turning to ACTCACAG, the binding signal is -0.1 E-score.

In the case of TCTAACAA, the binding signal is -0.243 E-score.

Consider ACTCTCAC, for which the binding signal is -0.0145 E-score.

As to CGGACAGC, the binding signal was -0.237 E-score.

On to ATGAACAC, for which the binding signal was determined as 0.4 E-score.

As to CTCGCACA, the binding signal was -0.0156 E-score.

Regarding CCCCCTGA, the binding signal is 0.277 E-score.

With CTTCGATA, the binding signal turned out to be 0.0255 E-score.

For ACATACAT, the binding signal was -0.22 E-score.

Turning to CTGGTCTC, the binding signal is -0.112 E-score.

For ATCTCTAC, the binding signal was -0.098 E-score.

Consider AGCATTCG, for which the binding signal is -0.173 E-score.

For the sequence ACAAATAT, the binding signal is -0.0398 E-score.

On to GGGGCTAA, for which the binding signal was found to be 0.0859 E-score.

With CATGCACA, the binding signal is -0.013 E-score.

For the sequence GCCGTGCC, the binding signal was -0.121 E-score.

Regarding AATGTTTG, the binding signal is -0.139 E-score.

Take TCATCTAA: the binding signal is -0.207 E-score.

Turning to ACATCATA, the binding signal is -0.111 E-score.

In the case of CCGTAAAG, the binding signal was determined as 0.0924 E-score.

Consider AGCTATCA, for which the binding signal was -0.128 E-score.

As for AAGCGTCT, the binding signal turned out to be 0.0128 E-score.

GACTGACC: the binding signal is -0.0752 E-score.

For ATCAGGCC, the binding signal was -0.106 E-score.

Turning to TCACGCGA, the binding signal is -0.0622 E-score.

On to CACGAATA, for which the binding signal came to 0.0166 E-score.

Regarding ACGCTCGC, the binding signal is 0.0296 E-score.

On to ACGTGATG, for which the binding signal was found to be 0.0525 E-score.

As to CGGTAGAA, the binding signal was -0.0834 E-score.

For the sequence AGAACCAA, the binding signal is -0.249 E-score.

As for ATGCGGTA, the binding signal stood at 0.0262 E-score.

Turning to ACAATAGA, the binding signal is -0.116 E-score.

Turning to CGCGAATA, the binding signal amounted to 0.0507 E-score.

Take AACGTGCA: the binding signal is -0.0942 E-score.

Take CGCCTCTC: the binding signal was -0.102 E-score.

CTAGAGTA: the binding signal was -0.0372 E-score.

Regarding GTCTGACA, the binding signal stood at 0.206 E-score.

Regarding GTGGTACA, the binding signal was found to be 0.122 E-score.

With ACAGTTAT, the binding signal is -0.138 E-score.

On to CAAGTGTG, for which the binding signal is 0.131 E-score.

On to CCGGCGTA, for which the binding signal is 0.0832 E-score.

AGCGTCCG: the binding signal amounted to 0.11 E-score.

For CGTTACTC, the binding signal came to 0.002 E-score.

As for CGCCGCGA, the binding signal was determined as 0.0151 E-score.

With GAAGTACC, the binding signal was determined as 0.0327 E-score.

Consider CCCCTCAA, for which the binding signal was determined as 0.161 E-score.

With CCAGACAC, the binding signal was 0.37 E-score.

On to GCACACGA, for which the binding signal worked out at 0.214 E-score.

Take CCCTTTAA: the binding signal is 0.138 E-score.

With CAGTGGAG, the binding signal amounted to 0.0257 E-score.

As to AACATGTT, the binding signal was -0.352 E-score.

In the case of CAGGTACC, the binding signal is 0.0178 E-score.

For GAGCTCCA, the binding signal is -0.275 E-score.

For the sequence AAAAGCCA, the binding signal was -0.259 E-score.

For the sequence CTTTACGA, the binding signal was -0.188 E-score.

With GGCGAGCA, the binding signal was -0.0485 E-score.

Take CTAGGGTC: the binding signal was found to be 0.0399 E-score.

CACCCGGC: the binding signal is 0.36 E-score.

In the case of CACCGTTA, the binding signal was 0.24 E-score.

As to CCATATCA, the binding signal was -0.0222 E-score.

On to ACATCCTC, for which the binding signal stood at 0.042 E-score.

In the case of ACCTTAGA, the binding signal is -0.015 E-score.

Consider AATAGCCA, for which the binding signal was -0.185 E-score.

For CCGCGCTC, the binding signal came out at 0.0188 E-score.

Consider TGACTTAA, for which the binding signal was -0.157 E-score.

For CAAAACGG, the binding signal is -0.113 E-score.

For ACCTTGCC, the binding signal came out at 0.0455 E-score.

Take GGGCGGGA: the binding signal is 0.0298 E-score.

In the case of CTATATAG, the binding signal was 0.0157 E-score.

For the sequence GTGTAACA, the binding signal turned out to be 0.445 E-score.

Regarding ACGGGCCA, the binding signal was -0.0699 E-score.

With CAGGAGTC, the binding signal was found to be 0.142 E-score.

For AAGCACCT, the binding signal was determined as 0.0486 E-score.

For the sequence CCAAAATC, the binding signal turned out to be 0.0242 E-score.

As to GACGCGTA, the binding signal stood at 0.0154 E-score.

In the case of AATCTCAA, the binding signal is -0.123 E-score.

Turning to ATTTATCG, the binding signal was -0.0438 E-score.

On to AATGGGCC, for which the binding signal was -0.19 E-score.

Take GATGAATA: the binding signal is -0.0402 E-score.

As for CCGTCCGA, the binding signal was -0.17 E-score.

Turning to CACAATGG, the binding signal is 0.061 E-score.

Turning to CGCTAGCG, the binding signal is -0.223 E-score.

In the case of ATATGCTA, the binding signal is -0.189 E-score.

Regarding ATCATCTG, the binding signal turned out to be 0.0713 E-score.

On to CGCTCGCA, for which the binding signal was -0.0199 E-score.

Turning to GACACAAA, the binding signal stood at 0.224 E-score.

Take CTCGTCCA: the binding signal is -0.253 E-score.

Turning to ACTCGAAA, the binding signal is -0.161 E-score.

For the sequence TAGTTTAA, the binding signal was 0.0641 E-score.

Regarding ACTGCCCC, the binding signal was -0.0883 E-score.

Consider CATTCTGC, for which the binding signal was -0.295 E-score.

Turning to CTTGCTCC, the binding signal was -0.258 E-score.

Consider GATTACAA, for which the binding signal is -0.222 E-score.
